# Some of the results follow.
# Key:
# Assay in all cases: glycan array binding signal (z-score within array); higher = stronger binding
# Details in all cases: glycan notation: IUPAC condensed, linker removed
# [1] = target: GlcNAc(b1-2)Gal(b1-3)GalNAc
# Procedure, shortened: (§1)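 The binding signal is a Z-score computed within each array and averaged over linkers. Arrays of the same protein sequence at different concentrations or buffers were also averaged together. Data originate from 3228 arrays in the Consortium for Functional Glycomics database, kept only where the protein sequence was available.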
# [2] = target: GlcNAc(b1-2)Man(a1-3)[GlcNAc(b1-2)Man(a1-6)]Man(b1-4)GlcNAc(b1-4)GlcNAc
# Procedure, shortened: as §1
# [3] = target: GlcNAc(b1-2)Man(a1-3)[GlcNAc(b1-2)Man(a1-6)]Man(b1-4)GlcNAc(b1-4)[Fuc(a1-6)]GlcNAc
# Procedure, shortened: as §1
# [4] = target: GlcNAc(b1-2)Man(a1-3)[GlcNAc(b1-4)][GlcNAc(b1-2)Man(a1-6)]Man(b1-4)GlcNAc(b1-4)GlcNAc
# Procedure, shortened: as §1
# [5] = target: GlcNAc(b1-2)Man(a1-3)[GlcNAc(b1-4)][GlcNAc(b1-2)Man(a1-6)]Man(b1-4)GlcNAc(b1-4)[Fuc(a1-6)]GlcNAc
# Procedure, shortened: as §1
# [6] = target: GlcNAc(b1-2)[GlcNAc(b1-4)]Man(a1-3)[GlcNAc(b1-2)Man(a1-6)]Man(b1-4)GlcNAc(b1-4)GlcNAc
# Procedure, shortened: as §1
# [7] = target: GlcNAc(b1-2)[GlcNAc(b1-4)]Man(a1-3)[GlcNAc(b1-4)][GlcNAc(b1-2)Man(a1-6)]Man(b1-4)GlcNAc(b1-4)GlcNAc
# Procedure, shortened: as §1
# [8] = target: GlcNAc(b1-2)[GlcNAc(b1-4)]Man(a1-3)[GlcNAc(b1-4)][GlcNAc(b1-2)[GlcNAc(b1-6)]Man(a1-6)]Man(b1-4)GlcNAc(b1-4)GlcNAc
# Procedure, shortened: as §1
# [9] = target: GlcNAc(b1-2)[GlcNAc(b1-4)]Man(a1-3)[GlcNAc(b1-4)][GlcNAc(b1-2)[GlcNAc(b1-6)]Man(a1-6)]Man(b1-4)GlcNAc(b1-4)[Fuc(a1-6)]GlcNAc
# Procedure, shortened: as §1
# [10] = target: GlcNAc(b1-2)[GlcNAc(b1-6)]Man(a1-6)[GlcNAc(b1-2)Man(a1-3)]Man(b1-4)GlcNAc(b1-4)GlcNAc
# Procedure, shortened: as §1
# [11] = target: GlcNAc(b1-2)[GlcNAc(b1-6)]Man(a1-6)[GlcNAc(b1-2)Man(a1-3)]Man(b1-4)GlcNAc(b1-4)[Fuc(a1-6)]GlcNAc
# Procedure, shortened: as §1
# [12] = target: GlcNAc(b1-2)[GlcNAc(b1-6)]Man(a1-6)[GlcNAc(b1-4)][GlcNAc(b1-2)Man(a1-3)]Man(b1-4)GlcNAc(b1-4)GlcNAc
# Procedure, shortened: as §1
# GlcNAc(b1-3)Fuc = target: GlcNAc(b1-3)Fuc
# Procedure, shortened: as §1
# GlcNAc(b1-3)Gal = target: GlcNAc(b1-3)Gal
# Procedure, shortened: as §1
# [13] = target: GlcNAc(b1-3)Gal(b1-3)GalNAc
# Procedure, shortened: as §1
# GlcNAc(b1-3)Gal(b1-4)Glc = target: GlcNAc(b1-3)Gal(b1-4)Glc
# Procedure, shortened: as §1
# [14] = target: GlcNAc(b1-3)Gal(b1-4)GlcNAc
# Procedure, shortened: as §1
# [15] = target: GlcNAc(b1-3)Gal(b1-4)GlcNAc(b1-2)Man(a1-3)[GlcNAc(b1-3)Gal(b1-4)GlcNAc(b1-2)Man(a1-6)]Man(b1-4)GlcNAc(b1-4)GlcNAc
# Procedure, shortened: as §1
# [16] = target: GlcNAc(b1-3)Gal(b1-4)GlcNAc(b1-2)Man(a1-3)[GlcNAc(b1-3)Gal(b1-4)GlcNAc(b1-2)Man(a1-6)]Man(b1-4)GlcNAc(b1-4)[Fuc(a1-6)]GlcNAc
# Procedure, shortened: as §1
# [17] = target: GlcNAc(b1-3)Gal(b1-4)GlcNAc(b1-2)[GlcNAc(b1-3)Gal(b1-4)GlcNAc(b1-6)]Man(a1-6)[GlcNAc(b1-3)Gal(b1-4)GlcNAc(b1-2)Man(a1-3)]Man(b1-4)GlcNAc(b1-4)GlcNAc
# Procedure, shortened: as §1
# [18] = target: GlcNAc(b1-3)Gal(b1-4)GlcNAc(b1-3)Gal(b1-4)GlcNAc
# Procedure, shortened: as §1
# [19] = target: GlcNAc(b1-3)Gal(b1-4)GlcNAc(b1-3)Gal(b1-4)GlcNAc(b1-2)Man(a1-3)[GlcNAc(b1-3)Gal(b1-4)GlcNAc(b1-3)Gal(b1-4)GlcNAc(b1-2)Man(a1-6)]Man(b1-4)GlcNAc(b1-4)GlcNAc
# Procedure, shortened: as §1
# [20] = target: GlcNAc(b1-3)Gal(b1-4)GlcNAc(b1-3)Gal(b1-4)GlcNAc(b1-2)Man(a1-3)[GlcNAc(b1-3)Gal(b1-4)GlcNAc(b1-3)Gal(b1-4)GlcNAc(b1-2)Man(a1-6)]Man(b1-4)GlcNAc(b1-4)[Fuc(a1-6)]GlcNAc
# Procedure, shortened: as §1
# [21] = target: GlcNAc(b1-3)Gal(b1-4)GlcNAc(b1-3)Gal(b1-4)GlcNAc(b1-2)[GlcNAc(b1-3)Gal(b1-4)GlcNAc(b1-3)Gal(b1-4)GlcNAc(b1-6)]Man(a1-6)[GlcNAc(b1-3)Gal(b1-4)GlcNAc(b1-3)Gal(b1-4)GlcNAc(b1-2)Man(a1-3)]Man(b1-4)GlcNAc(b1-4)[Fuc(a1-6)]GlcNAc
# Procedure, shortened: as §1
# [22] = target: GlcNAc(b1-3)Gal(b1-4)GlcNAc(b1-3)Gal(b1-4)GlcNAc(b1-3)Gal(b1-4)GlcNAc(b1-2)Man(a1-3)[GlcNAc(b1-3)Gal(b1-4)GlcNAc(b1-3)Gal(b1-4)GlcNAc(b1-3)Gal(b1-4)GlcNAc(b1-2)Man(a1-6)]Man(b1-4)GlcNAc(b1-4)GlcNAc
# Procedure, shortened: as §1
# [23] = target: GlcNAc(b1-3)Gal(b1-4)GlcNAc(b1-3)Gal(b1-4)GlcNAc(b1-3)Gal(b1-4)GlcNAc(b1-2)Man(a1-3)[GlcNAc(b1-3)Gal(b1-4)GlcNAc(b1-3)Gal(b1-4)GlcNAc(b1-3)Gal(b1-4)GlcNAc(b1-2)Man(a1-6)]Man(b1-4)GlcNAc(b1-4)[Fuc(a1-6)]GlcNAc
# Procedure, shortened: as §1
# [24] = target: GlcNAc(b1-3)Gal(b1-4)GlcNAc(b1-3)Gal(b1-4)GlcNAc(b1-3)Gal(b1-4)GlcNAc(b1-2)[GlcNAc(b1-3)Gal(b1-4)GlcNAc(b1-3)Gal(b1-4)GlcNAc(b1-3)Gal(b1-4)GlcNAc(b1-6)]Man(a1-6)[GlcNAc(b1-3)Gal(b1-4)GlcNAc(b1-3)Gal(b1-4)GlcNAc(b1-3)Gal(b1-4)GlcNAc(b1-2)Man(a1-3)]Man(b1-4)GlcNAc(b1-4)[Fuc(a1-6)]GlcNAc
# Procedure, shortened: as §1
# [25] = target: GlcNAc(b1-3)Gal(b1-4)GlcNAc(b1-3)Gal(b1-4)GlcNAc(b1-3)Gal(b1-4)GlcNAc(b1-3)Gal(b1-4)GlcNAc(b1-2)Man(a1-3)[GlcNAc(b1-3)Gal(b1-4)GlcNAc(b1-3)Gal(b1-4)GlcNAc(b1-3)Gal(b1-4)GlcNAc(b1-3)Gal(b1-4)GlcNAc(b1-2)Man(a1-6)]Man(b1-4)GlcNAc(b1-4)GlcNAc
# Procedure, shortened: as §1
# [26] = target: GlcNAc(b1-3)Gal(b1-4)GlcNAc(b1-3)Gal(b1-4)GlcNAc(b1-3)Gal(b1-4)GlcNAc(b1-3)Gal(b1-4)GlcNAc(b1-2)Man(a1-3)[GlcNAc(b1-3)Gal(b1-4)GlcNAc(b1-3)Gal(b1-4)GlcNAc(b1-3)Gal(b1-4)GlcNAc(b1-3)Gal(b1-4)GlcNAc(b1-2)Man(a1-6)]Man(b1-4)GlcNAc(b1-4)[Fuc(a1-6)]GlcNAc
# Procedure, shortened: as §1
# [27] = target: GlcNAc(b1-3)Gal(b1-4)GlcNAc(b1-3)Gal(b1-4)GlcNAc(b1-3)Gal(b1-4)GlcNAc(b1-3)Gal(b1-4)GlcNAc(b1-2)[GlcNAc(b1-3)Gal(b1-4)GlcNAc(b1-3)Gal(b1-4)GlcNAc(b1-3)Gal(b1-4)GlcNAc(b1-3)Gal(b1-4)GlcNAc(b1-6)]Man(a1-6)[GlcNAc(b1-3)Gal(b1-4)GlcNAc(b1-3)Gal(b1-4)GlcNAc(b1-3)Gal(b1-4)GlcNAc(b1-3)Gal(b1-4)GlcNAc(b1-2)Man(a1-3)]Man(b1-4)GlcNAc(b1-4)[Fuc(a1-6)]GlcNAc
# Procedure, shortened: as §1
# [28] = target: GlcNAc(b1-3)Gal(b1-4)GlcNAc(b1-3)Gal(b1-4)GlcNAc(b1-3)GalNAc
# Procedure, shortened: as §1
# [29] = target: GlcNAc(b1-3)Gal(b1-4)GlcNAc(b1-3)GalNAc
# Procedure, shortened: as §1
# [30] = target: GlcNAc(b1-3)Gal(b1-4)GlcNAc(b1-3)[GlcNAc(b1-3)Gal(b1-4)GlcNAc(b1-3)]GalNAc
# Procedure, shortened: as §1
# [31] = target: GlcNAc(b1-3)Gal(b1-4)GlcNAc(b1-6)[Gal(b1-3)]GalNAc
# Procedure, shortened: as §1
# [32] = target: GlcNAc(b1-3)Gal(b1-4)GlcNAc(b1-6)[GlcNAc(b1-3)Gal(b1-3)]GalNAc
# Procedure, shortened: as §1
# [33] = target: GlcNAc(b1-3)Gal(b1-4)GlcNAc(b1-6)[GlcNAc(b1-3)]Gal(b1-4)GlcNAc
# Procedure, shortened: as §1
# GlcNAc(b1-3)GalNAc = target: GlcNAc(b1-3)GalNAc
# Procedure, shortened: as §1
binder,measurement,setting,value
SP16663B-bot-321-25-321 (Bacteroides ovatus) (protein) DDDDEVTMNSKFYLSTKVFPVDSYEASLSVILKDNSVVVNELQPNYRFVACATERLSKDVKITADSDDNLVSAYNKANDTEYNILPAENYSFTNKTVTIENGESVSGDSIKIELLNVGSLTTEGGYLLPVTISSIEGNNLDALSSNRGVVYLKIQNIHVNVESGQPAEGTLIADRSGWTVKVAPTTRGDAKNLIDGTNSDVARDGGAEYWLTVDIGKVQTLTGIRNKCYASSYSPTAVEVFTSSDGAKWKSIGAVTISKSGTQYIKFSKAVETRYLKYYVKQGPNTVSLTEFDLYAK,glycan array binding signal (z-score),[1],-0.084
same,glycan array binding signal (z-score),[2],-0.548
same,glycan array binding signal (z-score),[3],0.16
same,glycan array binding signal (z-score),[4],-0.155
same,glycan array binding signal (z-score),[5],-0.277
same,glycan array binding signal (z-score),[6],0.055
same,glycan array binding signal (z-score),[7],-0.175
same,glycan array binding signal (z-score),[8],-0.483
same,glycan array binding signal (z-score),[9],0.093
same,glycan array binding signal (z-score),[10],-0.273
same,glycan array binding signal (z-score),[11],-0.433
same,glycan array binding signal (z-score),[12],-0.138
same,glycan array binding signal (z-score),GlcNAc(b1-3)Fuc,-0.336
same,glycan array binding signal (z-score),GlcNAc(b1-3)Gal,-0.642
same,glycan array binding signal (z-score),[13],0.266
same,glycan array binding signal (z-score),GlcNAc(b1-3)Gal(b1-4)Glc,0.252
same,glycan array binding signal (z-score),[14],-0.199
same,glycan array binding signal (z-score),[15],0.431
same,glycan array binding signal (z-score),[16],-0.057
same,glycan array binding signal (z-score),[17],0.821
same,glycan array binding signal (z-score),[18],-0.268
same,glycan array binding signal (z-score),[19],0.697
same,glycan array binding signal (z-score),[20],0.178
same,glycan array binding signal (z-score),[21],2.65
same,glycan array binding signal (z-score),[22],-0.233
same,glycan array binding signal (z-score),[23],-0.181
same,glycan array binding signal (z-score),[24],1.28
same,glycan array binding signal (z-score),[25],0.101
same,glycan array binding signal (z-score),[26],0.019
same,glycan array binding signal (z-score),[27],-0.29
same,glycan array binding signal (z-score),[28],-0.097
same,glycan array binding signal (z-score),[29],-0.536
same,glycan array binding signal (z-score),[30],0.951
same,glycan array binding signal (z-score),[31],-0.368
same,glycan array binding signal (z-score),[32],-0.352
same,glycan array binding signal (z-score),[33],-0.881
same,glycan array binding signal (z-score),GlcNAc(b1-3)GalNAc,0.939

# From the supplement of paper PMC8728848
